Data as given in PMC6919601, “Identification of Plasmodium dipeptidyl aminopeptidase allosteric inhibitors by high throughput screening” (PLoS ONE, 2019).
The campaign covered roughly 110,000 compounds. About 230 (0.21%) showed an effect of 50% or more. This is one part of the list.

These compounds were tested against DPAP1 (Plasmodium falciparum, UniProt Q8IIJ9) (assay: primary screen, percent inhibition; read by cleavage of a fluorogenic dipeptide substrate; higher = more effect of the substance).
DPAP1, sequence (Q8IIJ9 whole entry, looked up): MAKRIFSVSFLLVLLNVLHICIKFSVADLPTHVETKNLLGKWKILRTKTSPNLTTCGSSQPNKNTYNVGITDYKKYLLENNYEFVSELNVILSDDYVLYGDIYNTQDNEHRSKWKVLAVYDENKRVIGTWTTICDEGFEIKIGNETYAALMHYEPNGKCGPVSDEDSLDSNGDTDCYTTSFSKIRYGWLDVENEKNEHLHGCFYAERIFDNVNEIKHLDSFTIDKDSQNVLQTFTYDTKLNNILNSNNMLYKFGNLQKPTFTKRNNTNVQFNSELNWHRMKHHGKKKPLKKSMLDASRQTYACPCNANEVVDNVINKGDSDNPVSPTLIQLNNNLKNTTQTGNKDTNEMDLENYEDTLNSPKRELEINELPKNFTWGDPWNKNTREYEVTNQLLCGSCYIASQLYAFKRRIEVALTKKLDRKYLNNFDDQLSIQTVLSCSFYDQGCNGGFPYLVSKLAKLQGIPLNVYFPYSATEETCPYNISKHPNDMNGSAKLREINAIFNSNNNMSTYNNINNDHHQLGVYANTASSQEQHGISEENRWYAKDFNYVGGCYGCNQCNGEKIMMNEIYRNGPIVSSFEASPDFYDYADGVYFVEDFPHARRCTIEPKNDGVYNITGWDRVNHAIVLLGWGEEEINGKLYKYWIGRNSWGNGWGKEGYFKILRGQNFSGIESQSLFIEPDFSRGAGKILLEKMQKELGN
Parameters: species or system P. falciparum D10 trophozoite lysates; single well
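Note: 30 min substrate incubation versus DMSO and 10 µM JCP410 controls.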

Structure (SMILES)	% Inhibition @ 10 uM [%]
CCOCC(=O)Nc1ccc2c(c1)c1ccccc1n2CC	-4.15
CCOC(=O)c1c(C)[nH]c(C)c1S(=O)(=O)NCC(=O)N1CCN(CC)CC1	-8.46
Nc1nc(S)nc2sc3c(c12)CCN(Cc1ccccc1)C3	54.1
CC(CNC(=O)c1csc2c1CCCC2)c1ccccc1 (stereo not drawn)	0.277
Cc1[nH]c2ccccc2c1Cc1nnc(SCC(N)=O)o1	4.08
CCOC(=O)c1cnc(SC)nc1-c1ccccc1	-2.73
CC(C)NC(=O)NS(=O)(=O)c1cnccc1NC1CC2CCC1C2 (stereo not drawn)	-4.12
CC1=CC2=NC(=O)/C(=C\c3cccn3CCCOc3ccc(C)cc3)C(=N)N2O1	-1.43
COc1cc(OC)nc(NC(=O)Nc2ccc(Cl)cc2)n1	2.38
COc1ccc(C)cc1NC(=O)c1cccnc1	3.89
COc1ccc(C(=O)Nc2cnn(Cc3ccc(Cl)cc3)c2)cc1OC	-2.97
CP(=O)(O)c1nc2ccccc2s1	-2.44
O=C(Nc1cccc(O)c1)c1ccc(S(=O)(=O)N2CCCCCC2)cc1	-2.37
CCN(CC)CCNc1ncnc2c1cnn2-c1ccc(C)cc1	4.77
COc1ccc(CCNC(=O)Cn2c(=O)c3cccn3c3cccnc32)cc1OC	-6.92
CC(C)C[C@H](NC(=O)[C@H](CCCNC(N)=O)NC(=O)OC(C)(C)C)C(=O)NCC#N	-1.82
Cc1cccc(OCC(O)Cn2nc(C)cc2C)c1 (stereo not drawn)	-5.26
COc1cccc(C(=O)N[C@@H](Cc2cc(Cl)c(O)c(Cl)c2)C(=O)NCC#N)c1	1.7
Cc1ccc2c(c1)-c1onc(C(=O)Nc3cc(-c4cccc(Cl)c4)no3)c1CO2	-2.9
Cc1ccc(C2C(C=C3C(=O)NC(=O)NC3=O)=C(c3cccs3)Oc3ccccc32)cc1 (stereo not drawn)	-0.467
O=C(Nc1ccc2nc(SCC(=O)N3CCOCC3)sc2c1)c1ccccc1Br	15.8
COc1ccc2ncc(C(=O)c3ccc(C)cc3)c(N3CCOCC3)c2c1	-7.13
COc1ccc(CN(C)C2CCN(C)CC2)cc1C	-0.828
O=c1/c(=C/c2ccc(O)cc2)sc2n1CCCN=2	5.85
O=S(=O)(Nc1ccc(S(=O)(=O)Nc2ccc(F)cc2)cc1)c1ccc(Cl)cc1	-2.8
Cn1c(=O)[nH]c(=O)c2c1nc(SCC(=O)O)n2Cc1cccc(Br)c1	-6.7

Structure (SMILES)	% Inhibition @ 10 uM [%]
O=C(NC1c2ccccc2Oc2ccccc21)c1cnccn1	3.01
Cc1cc(N2CCC(C(N)=O)CC2)nc2cc(O)ccc12	-8.68
CCOc1ccccc1CNCc1c(C(=O)O)[nH]c2cc(C)ccc12	-1.53
COc1ccc(CCNS(=O)(=O)c2ccc3oc(=O)c4ncn(C)c4c3c2)cc1OC	-3.9
O=C(c1cccs1)N(Cc1ccco1)Cc1ccccc1Cl	-2.21
CC(C(=O)NCc1ccc(Cl)cc1)n1cccc1C(=O)c1ccccc1 (stereo not drawn)	-0.522
C=CCn1c(SC(C)C)nnc1-c1ccc2[nH]c(C)c(C)c2c1	0.238
Cc1ccc(C)c(-c2nc(NC(=O)C3C4C=CC(C4)C3C(=O)O)sc2C)c1 (stereo not drawn)	7.16
N#CC1=C(N)OC2=C(C(=O)CC(c3ccccc3)C2)C1c1ccc2c(c1)OCO2 (stereo not drawn)	6.56
O=S(=O)(NCc1ccc(F)cc1)c1ccc(-n2cnnn2)cc1	0.635
Nc1ccccc1-c1nc(-c2ccccc2)nc2ccccc12	-2.42
Cc1ccccc1C(=O)Nc1sc2c(c1C(=O)NCCO)CCC(C(C)(C)C)C2 (stereo not drawn)	5.31
COc1cc2c(cc1OC)C(c1cccc(Br)c1)NCC2 (stereo not drawn)	3.31
CC(C)n1c(-c2nonc2N)nc2ccccc21	7.62
Cc1cccc(C(=O)Nc2ccc3c(c2)OCO3)c1	-5.32
COCCCN1C(=O)/C(=C\c2cc(C)n(-c3ccc(F)cc3)c2C)C(C(=O)OC)=C1C	-3.63
COc1ccc2c(c1OC)C(c1ccccc1)(c1ccccc1)OC2	1.35
COc1ccc(C2CC(=O)C3=C(C2)OC(N)=C(C#N)C3c2ccccc2F)cc1 (stereo not drawn)	-1.08
COc1cc(C#CCN2CCCCC2)ccc1O	-3.6
COc1cc(Cl)c(C=C2C(=O)c3ccccc3C2=O)cc1OC	-3.28
CC1CN(c2cc([N+](=O)[O-])ccc2Cl)CC(C)N1 (stereo not drawn)	1.4
Cc1nc(N)nc(C)c1Cc1ccccc1	9.29
CCc1[nH]nc2c1C(c1ccc(-c3ccc(Cl)cc3)o1)C(C#N)=C(N)O2 (stereo not drawn)	-0.968
COc1ccc(-c2nc(CS(=O)CC(=O)NCCC3=CCCCC3)c(C)o2)cc1 (stereo not drawn)	0.689
N=C(NOC(=O)c1ccc(Cl)cc1Cl)c1ccccn1	-8.88
C=CCSc1nc(=O)cc(O)n1C	0.526

Structure (SMILES)	% Inhibition @ 10 uM [%]
Cc1ccc(OCCCCCc2c(C)n[nH]c2C)c(C)c1	-0.833
COc1ccc(C2C3=C(O)CC(C)(C)CC3=Nc3nc(SC)nn32)cc1Br (stereo not drawn)	-9.03
COc1ccc(-c2nc(N)c(C#N)c(-c3ccco3)c2C)cc1	2.1
C=C(C)Cn1c(C(C)NC(=O)CCC)nc2ccccc21 (stereo not drawn)	1.41
Cc1ccc(C(C)C)c(OCC(=O)Nc2ccc(S(=O)(=O)N3CCOCC3)cc2)c1	2.05
COc1cc(S(=O)(=O)N2CCCCCC2)c(OC)cc1Cl	-1.32
COCCCN1CCc2nc(S)nc(O)c2C1	-3.85
CN1CCC(N(C)Cc2c(F)cccc2Cl)CC1	-7.93
COCCN1C(=O)c2ccccc2C(C(=O)N2CCN(Cc3ccccc3)CC2)C1c1cccs1 (stereo not drawn)	-0.613
COc1ccc(C2CC(C(F)(F)F)n3ncc(C(=O)NCc4cnn(C)c4C)c3N2)cc1OC (stereo not drawn)	-5.7
Cc1cc(C)c(Cn2cccc2C2=NC(C)CO2)c(C)c1 (stereo not drawn)	-3.39
Cc1ccc(NC(=O)CN2CCOCC2)cc1Cl	5.39
CCOc1ccc(/C=c2/sc3nnc(-c4ccccc4C)n3c2=O)cc1	2.24
Oc1ccccc1C1CC(c2ccccc2)=NC(c2cccs2)N1 (stereo not drawn)	2.57
N#C/C(=C\Nc1cccc(Cl)c1)C(=O)NC(=O)c1ccccc1	2.38
CC(C)C[C@H](NC(=O)c1ccc(-c2csc(NC3CCN(C(=O)OC(C)(C)C)CC3)n2)cc1)C(=O)NCC#N	-4.72
Cc1cc(=O)n2cccc(O)c2n1	-5.5
CC(C)(C)n1cnc2cc(NC(=O)c3cccs3)ccc21	-3.24
COC(=O)c1ccc2oc(=O)c(-c3nc4cc(C(=O)O)ccc4[nH]3)cc2c1	4.77
Cc1[nH]cnc1CN1CCC(Cc2ccccc2)CC1	0.217
CC1CCCC(C)N1CCNC(=O)C1C2C=CC3(CN(Cc4ccccc4Cl)C(=O)C13)O2 (stereo not drawn)	-5.43
COc1ccc(C2(CNCC3(O)CCC4C5CCC6C7OCCOC7C(C)CC6(C)C5CCC43C)CCCC2)cc1OC (stereo not drawn)	1.54
CO/C=C(\Oc1ccccc1C)C(=O)Nc1cccc(C)c1	-2.99
Clc1ccc(Oc2nc(N3CCOCC3)nc(N3CCOCC3)n2)c(C2CCCCC2)c1	4.19
CC(NC(=O)CN(C)S(=O)(=O)c1c[nH]cn1)c1ccccc1 (stereo not drawn)	-0.0309
COc1cccc(CCNCc2c(F)cccc2F)c1	25.4

Structure (SMILES)	% Inhibition @ 10 uM [%]
Oc1cc(N2CCOCC2)c2ccccc2c1Cl	-1.17
O=C(CSc1nc2ccccc2o1)Nc1ccccc1C(F)(F)F	1.84
COc1ccc(-c2nn(C)c(=O)c3ccccc23)cc1CNC(=O)c1ccccc1OC	3.72
ClC(Cl)=CC1CC(c2ccccc2)=NN1c1ccccc1 (stereo not drawn)	-1.76
C=CCOc1cccc(C(Nc2cc(C)ccn2)c2ccc3cccnc3c2O)c1 (stereo not drawn)	-1.33
OCC1CCCN(Cc2cccs2)C1 (stereo not drawn)	-6.12
COc1ccc(NC(=O)c2nn3c(c2Cl)NC(c2cccs2)CC3C(F)(F)F)c(OC)c1 (stereo not drawn)	-2.87
CC(C)CCNCc1c(C(=O)O)n(Cc2ccccc2Cl)c2ccccc12	-5.05
CCOc1cc2c(cc1/C=C1\SC(=O)NC1=O)OCO2	7.87
CCc1ccccc1NS(=O)(=O)c1c(C)cc(C)cc1C	-1.62
CC(CCc1ccccc1)N1CCN(C)CC1 (stereo not drawn)	3.05
O=[N+]([O-])c1ccc(-c2[nH]c(-c3ccc(Br)cc3)nc2-c2ccccc2)cc1	7.47
Cc1cc(OCC(=O)N(Cc2ccccc2F)C2CCS(=O)(=O)C2)cc(C)c1Cl (stereo not drawn)	3.62
Cc1cc(Sc2nnnn2-c2ccccc2)nc2ccccc12	-0.424
Cc1nc2nc(NCc3cccs3)nn2c(O)c1C	-0.671
COc1ccc(C(=O)NC2(C(F)(F)F)C(=O)Nc3c2c(=O)[nH]c(=O)n3-c2ccc(F)cc2)cc1 (stereo not drawn)	0.231
O=C(NCCO)/C(=C/c1ccc(Br)cc1)NC(=O)c1cccs1	2.69
COc1cccc(N(CC(=O)Nc2ccccc2C)S(=O)(=O)c2ccccc2)c1	2.02
COc1cccc(/C=C2\SC(Nc3cccc(Cl)c3C)=NC2=O)c1OCC(=O)O	7
Cc1nc2cc(-c3ccccc3)nn2c(C)c1CC(=O)NCCCOC(C)C	0.953
O=c1oc2cc(O)ccc2cc1-c1nc(-c2ccc3ccccc3c2)cs1	0.23
CC(Oc1ccc(F)cc1)C(=O)Nc1sc2c(c1C(=O)NCc1cccnc1)CCCC2 (stereo not drawn)	0.661
CSc1nc(C)cc(Oc2ccc(OCC(N)=O)nn2)n1	-6.71
Cc1cc(C)c(C(N)=O)c(Nc2ccc(Cl)cc2)n1	-10.8
